Source: PMC4336329 (PLoS ONE, 2015)
The whole screen tested about 310,000 compounds, of which about 14,000 (4.5%) showed an effect of 50% or more. The effect is printed as a negative number. This is one part of the list.

Biological target: human ether-à-go-go-related gene (hERG) potassium channel (human, UniProt Q12809)
Experiment: primary screen, population patch clamp on CHO cells stably expressing hERG
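Also: peak tail current of the secondary pulse compared with the same well before compound.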

Sequence of human ether-à-go-go-related gene (hERG) potassium channel (Q12809 whole entry, looked up): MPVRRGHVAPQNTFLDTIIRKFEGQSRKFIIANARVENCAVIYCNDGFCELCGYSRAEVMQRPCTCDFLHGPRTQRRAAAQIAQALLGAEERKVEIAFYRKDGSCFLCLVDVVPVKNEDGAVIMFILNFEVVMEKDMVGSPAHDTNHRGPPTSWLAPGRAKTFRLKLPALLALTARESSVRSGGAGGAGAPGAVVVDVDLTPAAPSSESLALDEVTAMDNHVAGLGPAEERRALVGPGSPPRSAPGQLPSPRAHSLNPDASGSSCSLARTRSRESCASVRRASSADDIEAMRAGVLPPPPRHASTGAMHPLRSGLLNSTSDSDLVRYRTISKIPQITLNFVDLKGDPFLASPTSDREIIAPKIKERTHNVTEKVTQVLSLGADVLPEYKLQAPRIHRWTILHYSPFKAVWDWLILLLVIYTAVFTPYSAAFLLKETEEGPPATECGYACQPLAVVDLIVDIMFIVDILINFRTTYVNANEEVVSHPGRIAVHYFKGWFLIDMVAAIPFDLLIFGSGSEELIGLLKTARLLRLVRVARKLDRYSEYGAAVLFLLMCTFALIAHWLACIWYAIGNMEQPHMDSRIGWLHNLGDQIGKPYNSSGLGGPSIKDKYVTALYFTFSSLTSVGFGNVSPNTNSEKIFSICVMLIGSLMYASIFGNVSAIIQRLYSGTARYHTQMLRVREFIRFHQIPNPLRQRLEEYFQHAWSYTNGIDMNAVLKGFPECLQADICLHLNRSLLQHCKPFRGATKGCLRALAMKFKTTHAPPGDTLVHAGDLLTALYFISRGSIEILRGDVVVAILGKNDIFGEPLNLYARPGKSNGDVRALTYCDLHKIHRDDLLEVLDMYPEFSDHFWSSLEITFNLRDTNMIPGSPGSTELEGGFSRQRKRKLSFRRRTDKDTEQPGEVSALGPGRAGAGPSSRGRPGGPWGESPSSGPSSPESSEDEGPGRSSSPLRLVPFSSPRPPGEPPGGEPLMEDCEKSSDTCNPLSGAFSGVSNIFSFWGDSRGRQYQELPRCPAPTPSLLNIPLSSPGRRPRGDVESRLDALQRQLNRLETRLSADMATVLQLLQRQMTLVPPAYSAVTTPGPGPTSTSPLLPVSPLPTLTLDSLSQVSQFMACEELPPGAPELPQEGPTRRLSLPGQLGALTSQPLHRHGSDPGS

Row | SMILES | hERG current change (%, negative = inhibition) at 10uM [%]
1 | COc1cccc(NC(=O)CSCc2cc(=O)n3ccsc3n2)c1 | 15.2
2 | O=C(Nc1ccc(-c2cscn2)cc1)C1CCCN(Cc2ccc(CO)o2)C1 (stereo not shown) | 16.6
3 | COc1ccc(-n2[nH]c(C)cc2=O)cc1 | 28.2
4 | COc1ccc2cc(C(=O)C3CCCN(Cc4cnc(N5CCOCC5)s4)C3)ccc2c1 (stereo not shown) | 14.6
5 | C/C(=N\NC(=O)c1ccccc1N)c1ccc(NC(=O)Cc2ccccc2)cc1 | 12.6
6 | CC1=C2C(=O)C3C(CC=C4CC(O)CCC43C)C2CCC12OC1CC(C)CNC1C2C (stereo not shown) | 26.8
7 | CN1C(=O)c2ccc(NC(=O)C3CCCCC3)cc2C1=O | -10.8
8 | CC(O)Cc1nsc(NC(=O)c2ccc(Br)o2)n1 (stereo not shown) | -19.9
9 | COc1cccc(NC(=O)CSc2nnc(-c3ccoc3C)n2-c2ccccc2)c1 | -85.7
10 | Cc1oc(-c2ccccc2F)nc1CS(=O)(=O)CC(=O)N1CCCCCC1 | 0.289
11 | COCCN1C2=C(C(=O)CC(C)(C)C2)C(c2ccc(O)c(OC)c2)C2=C1CC(C)(C)CC2=O | -17.9
12 | Cl.Cn1c(=N)n(CC(O)c2cccc3ccccc23)c2ccccc21 (stereo not shown) | -67
13 | Cc1ccc(NC(=O)C(OC(=O)c2ccc(O)cc2)c2ccccc2)cc1Cl (stereo not shown) | -6.49
14 | O=C(O)/C=C/C(=O)NC1CCC(CC2CCC(NC(=O)/C=C/C(=O)O)CC2)CC1 (stereo not shown) | 32
15 | Clc1cnc(N/N=C/c2cccs2)c(Cl)c1 | -0.833
16 | COc1ccccc1CCC(=O)NCCCn1ccc2ccccc21 | 21.4
17 | O=C(CCc1ccccc1)Nc1ccncc1 | -56.8
18 | COc1cccc(-c2nc(CS(=O)CC(=O)NC(C)CCc3ccccc3)c(C)o2)c1 (stereo not shown) | -8.54
19 | Cc1cc(=O)[nH]c(N)n1 | 27.6
20 | O=C(NCc1ccccc1)c1c[nH]c2ccc(S(=O)(=O)Nc3ccc4c(c3)OCCO4)cc2c1=O | 6.01
21 | CC(=O)c1c(C)n(-c2ccc(N(C)C)cc2)c2ccc(OCC(N)=O)cc12 | 3.73
22 | O=C1C2CC=CCC2C(=O)N1Cc1nnc(-c2ccc(Cl)cc2)o1 (stereo not shown) | -17.9

Row | SMILES | hERG current change (%, negative = inhibition) at 10uM [%]
23 | Cc1[nH]n(-c2ccc([N+](=O)[O-])cc2)c(=O)c1C=NCCc1ccc(S(N)(=O)=O)cc1 | 10.7
24 | CN=C1S/C(=C\c2ccc(O)c(OC)c2)C(=O)N1C | 11.5
25 | O=c1[nH]nc(-c2ccc(F)cc2)cc1Cc1cccs1 | -6.01
26 | CCC1(c2ccccc2)NC(=O)N(CC(=O)Nc2ccc(N3CCCC3)cc2C)C1=O (stereo not shown) | -7
27 | O=C(NC(=O)N1CCN(c2cccc(Cl)c2)CC1)c1ccccc1 | 6.99
28 | OC(COc1cc(Cl)c(Cl)cc1Cl)CN1CCN(c2ncccn2)CC1 (stereo not shown) | -11.3
29 | CCOC(=O)c1c(-c2ccccc2Cl)csc1NC(=O)CSc1nc(C)cc(=O)[nH]1 | 4.37
30 | Cc1ccc(/C=N/NC(=S)NC(C)C)o1 | 5.49
31 | Nc1nc(COc2ccccc2C=O)nc(Nc2ccccc2)n1 | -23.3
32 | CC(C)NC(=O)COc1coc(CN2CCN(c3cccc(Cl)c3)CC2)cc1=O | -16.1
33 | Cc1ccc(S(=O)(=O)N(C)c2ccccc2C(=O)Nc2ccc3c(c2)OCCO3)cc1 | -16.9
34 | CS(=O)(=O)Nc1ccc(Oc2ncccn2)cc1 | 14.4
35 | O=C(N=C1SC2CS(=O)(=O)CC2N1CCc1ccccc1)C1CCCCC1 (stereo not shown) | 1.42
36 | Br.C1=C(c2cccc3ccccc23)N2CCN=C2S1 | -34.5
37 | CCc1nc(OCC(=O)c2ccccc2)c(C#N)c2c1COC(C)(C)C2 | 10.8
38 | O=C1C=C(c2cc(F)ccc2F)C[C@@H](c2ccc(F)cc2)C1 | -4.05
39 | CCOc1ccc(Nc2ncnc3c2cnn3Cc2ccccc2)cc1 | -5.66
40 | CCOC(=O)N1CCN(C(=O)C2CCN(C(=O)c3ccc(C(C)(C)C)cc3)CC2)CC1 | -31
41 | N#Cc1cc([N+](=O)[O-])ccc1NC(=O)COC(=O)C12CC3CC(CC(C3)C1)C2 | -10.7
42 | O=C(O)/C=C/C(=O)NCc1ccccn1 | 30
43 | CCCNC(=O)N1CCN(C(c2ccccc2)c2ccccc2)CC1 | 8.23
44 | COC(=O)c1sccc1NC(=O)CN1CCN(c2ccc(F)cc2)CC1 | 6.89

Row | SMILES | hERG current change (%, negative = inhibition) at 10uM [%]
45 | CCC1Sc2ccc(S(=O)(=O)CCC(=O)Nc3cc(C)ccn3)cc2NC1=O (stereo not shown) | 11.9
46 | O=C(Nc1ccccc1)c1nc[nH]c1C(=O)NCc1ccccc1 | 5.02
47 | COc1ccc(CN2CCc3ccc(NC(=O)CCc4ccccc4OC)cc3C2)c(O)c1 | -35.2
48 | O=C(NNc1ccccc1[N+](=O)[O-])Nc1ccc(F)cc1F | 10.9
49 | C=CCn1c(CCCOc2ccc(Cl)cc2Cl)nnc1SCC(=O)Nc1nccs1 | 3.79
50 | COc1ccc2oc(C(=O)OCC(=O)N3CC(C)CC(C)C3)c(C)c2c1 (stereo not shown) | -56.1
51 | CC(=O)N1CCc2cc(Br)cc(S(=O)(=O)N3CCN(c4ccccn4)CC3)c21 | 10.7
52 | NC(=O)CSc1cn(Cc2ccc(F)cc2)c2ccccc12 | 2.24
53 | CC12c3ccccc3C(c3ccccc31)C1C(=O)N(c3cccnc3)C(=O)C12 (stereo not shown) | -8.22
54 | N#Cc1cc(NC(=O)c2ccc(F)cc2)c(=O)n2c1[nH]c1ccccc12 | 15.1
55 | Cc1cccc(OCc2nc3ccccc3c(=O)n2N)c1 | 6.37
56 | COc1ccc(OC)c(C2CC(=O)Nc3c2c(=O)[nH]c2ncnn32)c1 (stereo not shown) | 1.66
57 | CCOC(=O)c1sc(NC(=O)CSc2nc(O)c(Cc3ccccc3)c(=O)[nH]2)nc1C | 14.6
58 | O=C(NNc1ccccn1)C(=O)NNS(=O)(=O)c1ccc(Cl)cc1 | 16.6
59 | CCn1c(-c2ccc(N(C)C)cc2)nc2ccccc21 | -50.3
60 | COc1cc2c(cc1OC)C(c1ccccc1[N+](=O)[O-])N(C(C)=O)CC2 (stereo not shown) | 19.2
61 | C=C(C)C(=O)Nc1cccc(C2=NOC3(C2)C[C@H](C(N)=O)N(C(=O)CC#N)C3)c1 (stereo partly shown) | 2.18
62 | CC(C(=O)N1CCCC1)N(c1ccccc1)S(C)(=O)=O (stereo not shown) | 25.1
63 | Nn1c(SCC(=O)Nc2cccc(C(F)(F)F)c2)nncc1=O | -11.8
64 | C/C=C/C1=CC(=O)C[C@H](c2ccc3c(c2)OCO3)C1 | -6.76
65 | CCOC(=O)C[C@H]1c2cc(F)ccc2S(=O)(=O)N1c1cccc(OC)c1 | 3.59
66 | O=Cc1ccc(OCCCOc2cccc3cccnc23)cc1 | -54.3

Row | SMILES | hERG current change (%, negative = inhibition) at 10uM [%]
67 | CC(Oc1ccc(Br)cc1)C(=O)Nn1c(=S)[nH]c2ncccc2c1=O (stereo not shown) | -9.15
68 | NC1=NC(c2ccc(Cl)cc2)N(c2ccc(S(N)(=O)=O)cc2)C(N)=N1 (stereo not shown) | 21.3
69 | COCCNC(=O)C1CC2Cn3c(nc4cc5ccccc5cc43)C2N1C (stereo not shown) | -3.93
70 | Nc1nnn(CC(=O)N/N=C/c2cn[nH]c2-c2ccccc2)n1 | 11.3
71 | CCOc1ccc(N(CC(=O)NC2CCCCC2)C(=O)CCCC(=O)Nc2ccccn2)cc1 | -0.443
72 | CCOC(=O)C(CC(=O)Nc1nc(C(C)=O)c(C)s1)C(C)c1ccccc1 (stereo not shown) | 2.61
73 | CC(Sc1nnc(-c2ccccc2F)n1C1CC1)C(=O)N1CCCC1 (stereo not shown) | 2.73
74 | COc1cc(=O)[nH]c(SCC(=O)Nc2ccc3ccccc3c2)n1 | 16.8
75 | CSc1nnc(-c2sccc2OCc2ccccc2)n1C | -13.8
76 | COc1ccc(/C(C)=N/NC(=O)c2ccc(NS(=O)(=O)c3cccs3)cc2)cc1 | 7.66
77 | COCCn1c(C)cc(C2=NNC(=NC3CC3)SC2)c1C.Cl | -41.9
78 | O=C(CN1CCCCCC1=O)OCc1ncc(-c2ccccc2)o1 | 4.36
79 | CCN(CC)S(=O)(=O)c1cc(NC(=O)CSc2n[nH]c(N)n2)ccc1C | 1.84
80 | Cl.NC(N)=NNC(=O)c1ccccc1Cl | 7.45
81 | COc1cc(C(=O)O)c([N+](=O)[O-])c(OC)c1OC | 15
82 | CC(C)(C)C1CCC(C(=O)NNC(=O)c2ccncc2)CC1 (stereo not shown) | -2.8
83 | c1ccc(Oc2ccc(-c3ccnc4nc(N5CCOCC5)nn34)cc2)cc1 | 4.87
84 | C=C(C)c1cccc(C(C)(C)NC(=O)Nc2ccc(C(C)=O)cc2)c1 | 13.5
85 | CN(C)S(=O)(=O)c1ccc(NC(=S)NC(=O)C2CCC2)cc1 | 10.3
86 | COc1ccc(NC2CCCN(C(=O)CCc3ccncc3)C2)cc1OC (stereo not shown) | 9.17
87 | O=C(Nc1cc(S(=O)(=O)N2CCOCC2)ccc1OCC(F)(F)F)C1=COCCO1 | -42.8
88 | COc1cc(/C=N/n2cnn(Cc3ccccc3Cl)c2=S)cc(OC)c1OC | 13.2
